# Source: article PMC4336329 (PLoS ONE, 2015)
# Hit rate of the full screen: of about 310,000 compounds, about 2,200 (0.71%) showed an effect of 50% or more. The effect is printed as a negative number. Some of the results follow.
# Molecular target: human ether-à-go-go-related gene (hERG) potassium channel (human, UniProt Q12809)
# Experiment: primary screen, population patch clamp on CHO cells stably expressing hERG
# Sequence of human ether-à-go-go-related gene (hERG) potassium channel (Q12809 whole entry, looked up): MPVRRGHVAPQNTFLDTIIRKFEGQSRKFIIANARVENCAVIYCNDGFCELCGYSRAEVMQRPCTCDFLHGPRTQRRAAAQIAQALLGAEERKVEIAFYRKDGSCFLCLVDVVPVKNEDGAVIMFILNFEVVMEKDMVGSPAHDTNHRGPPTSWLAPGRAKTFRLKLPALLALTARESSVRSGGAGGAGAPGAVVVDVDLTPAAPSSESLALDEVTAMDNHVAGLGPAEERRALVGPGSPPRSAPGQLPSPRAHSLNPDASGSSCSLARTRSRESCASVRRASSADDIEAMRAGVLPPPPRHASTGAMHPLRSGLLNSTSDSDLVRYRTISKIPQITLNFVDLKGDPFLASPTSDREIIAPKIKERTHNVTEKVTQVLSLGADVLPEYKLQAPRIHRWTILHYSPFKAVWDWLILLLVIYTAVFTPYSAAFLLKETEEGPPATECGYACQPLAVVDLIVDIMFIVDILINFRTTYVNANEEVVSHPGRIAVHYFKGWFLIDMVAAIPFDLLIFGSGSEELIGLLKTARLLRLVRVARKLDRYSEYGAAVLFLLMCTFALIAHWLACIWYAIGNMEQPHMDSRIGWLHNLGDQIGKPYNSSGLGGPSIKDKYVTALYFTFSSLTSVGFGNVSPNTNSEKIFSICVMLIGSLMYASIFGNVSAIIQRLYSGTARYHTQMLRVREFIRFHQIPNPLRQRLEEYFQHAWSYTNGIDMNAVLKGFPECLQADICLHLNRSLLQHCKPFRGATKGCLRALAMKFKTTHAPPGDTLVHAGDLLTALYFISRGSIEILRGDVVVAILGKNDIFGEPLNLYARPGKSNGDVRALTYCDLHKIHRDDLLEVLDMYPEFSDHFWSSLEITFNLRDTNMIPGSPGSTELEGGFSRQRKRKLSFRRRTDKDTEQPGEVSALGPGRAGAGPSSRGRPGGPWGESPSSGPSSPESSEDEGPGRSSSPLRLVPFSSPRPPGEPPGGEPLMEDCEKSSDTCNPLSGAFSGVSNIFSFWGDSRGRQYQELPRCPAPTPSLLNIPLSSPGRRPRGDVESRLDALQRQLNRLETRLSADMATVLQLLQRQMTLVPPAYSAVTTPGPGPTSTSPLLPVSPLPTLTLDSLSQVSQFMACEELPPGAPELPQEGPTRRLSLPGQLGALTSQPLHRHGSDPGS
row,Structure (SMILES),"hERG current change (%, negative = inhibition) at 1uM"
1,O=C(NCCc1ccccn1)c1ccc(S(=O)(=O)N2CCCCCC2)cc1,-5.2%
2,c1c(CC2CCCC2)nnn1C[C@H]1CC[C@@H]([C@@H]2CC[C@H](Cn3cc(CC4CCCC4)nn3)O2)O1,-21.8%
3,CC1CCN(C(=O)CC(NC(=O)c2ccccc2Cl)c2ccccc2)CC1 (centres unmarked),4.86%
4,CC(C)(C)Nc1c(-c2cccs2)nc2ccccn12,14.1%
5,CCN(CC)c1ccc(C(=O)Nc2ccccc2)cc1[N+](=O)[O-],4.11%
6,COc1cccc(OC)c1C(=O)Nc1cccc(NC(=O)c2cccs2)c1,16.7%
7,CCCn1nnc(NC(=O)c2ccc(Br)cc2)n1,4.06%
8,CC(C)c1ccc(C(O)c2cnc(C(C)C)n2C)cc1 (centres unmarked),3.38%
9,O=C(CSc1nnc(CNc2ccccc2)o1)N1CCCc2ccccc21,-3.37%
10,CCOC(=O)c1cnn(Cc2ccc(C)cc2)c1N,14.5%
11,O=C1c2ccncc2C(=O)N1CO,13.1%
12,Cc1cccc2cc(CN(Cc3cccs3)Cc3nnnn3Cc3ccccc3)c(=O)[nH]c12,-3.15%
13,CC1CN(C(=O)Nc2ccc3c(c2)OCCO3)CC(C)O1 (centres unmarked),14%
14,O=S(=O)(Nc1ccc(-c2cn3c(n2)SCC3)cc1)c1ccccc1F,4.05%
15,Cn1cc(CNCc2ccccc2OCC(O)CN2CCc3ccccc3C2)cn1 (centres unmarked),7.11%
16,Cc1ccc2c(=O)[nH]c(Cc3ccccc3C(=O)O)nc2c1,16%
17,Br.O=C(O)c1ccccc1CSC1=NCCS1,1.13%
18,COc1ccc(N(CC(=O)NCc2ccc3c(c2)OCO3)S(C)(=O)=O)cc1OC,5.76%
19,CCC(=O)Nc1ccc(-c2nn3c(C)nnc3s2)cc1C,-1.19%
20,Cc1ccc(/C=N/NC(=O)C(C)Oc2cccc3ccccc23)o1 (centres unmarked),6.79%

row,Structure (SMILES),"hERG current change (%, negative = inhibition) at 1uM"
1,CCN(Cc1nc(-c2cccc(C)c2)no1)C(=O)c1ccc2c(c1)OCO2,2.74%
2,O=Cc1c(N2CCSCC2)nc2ccccn2c1=O,4.12%
3,CCc1ccc(N2CC(C(=O)OCC(=O)NC3CCS(=O)(=O)C3)CC2=O)cc1 (centres unmarked),11.4%
4,N#CC1(c2ccccc2)CCC(=O)N1c1ccccc1 (centres unmarked),14.9%
5,COc1cnc(SC)nc1Nc1ccc(C#N)cc1,-9.86%
6,COc1ccc(C(=O)Nc2ccc(NC(=O)c3cnccn3)cn2)cc1,7.26%
7,O=S(=O)(c1ccc(Cl)cc1)N1CCNCC1,10.9%
8,Cc1cccc(NC(=O)CSc2nnc(-c3ccc(S(=O)(=O)N4CCOCC4)cc3)n2C)c1,-5.53%
9,Cn1cc([N+](=O)[O-])c(C(=O)Nc2ccc3c(C(F)(F)F)cc(=O)oc3c2)n1,11.2%
10,CCCCCn1c(NCc2ccco2)nc2ccccc21,-41.5%
11,CCCS(=O)(=O)N1CCCC(C(=O)N2CCOCC2)C1 (centres unmarked),4.33%
12,N#Cc1ccsc1NC(=O)C1CCCN1S(=O)(=O)c1cccs1 (centres unmarked),22.2%
13,N#Cc1ccc(/C=C/C(=O)c2cccnc2)cc1,-26.5%
14,O=C(COC(=O)c1ccc(S(=O)(=O)N2CCCC2)cc1)Nc1ccc(F)cc1F,1.39%
15,Fc1ccc(/C=N/Nc2nc3ccccc3[nH]2)cc1F,2.37%
16,CCC(CC)C(=O)Nc1cccc(C(=O)NCCc2ccccc2)c1,5.81%
17,C(=N\n1cnnc1)/c1cccc(OCCOc2ccccc2)c1,7.28%
18,Cc1cc(N/N=C(/CCC(=O)[O-])C(=O)[O-])nc2ccccc12.[K+],26.3%
19,Cc1ccc([N+](=O)[O-])c(OCCn2cnc3ccccc32)c1,11.3%
20,O=C1NC[C@@H](Cc2cccc3ccccc23)N(CC2CCCCC2)C1=O,7.59%

row,Structure (SMILES),"hERG current change (%, negative = inhibition) at 1uM"
1,CN(C)c1c([N+](=O)[O-])ncn1C,2.47%
2,COc1cccc(C2NC(=O)NC(O)(C(F)(F)F)C2C(=O)c2cccnc2)c1OC (centres unmarked),4.51%
3,CCOC(=O)c1sc(N)nc1C(C)C,6.5%
4,O=[N+]([O-])c1cc(/C=N/N/C(=N/c2ccccn2)c2ccccn2)ccc1O,11.3%
5,Cc1ccc2cc(CN(Cc3nnnn3Cc3ccco3)CC3CCCO3)c(=O)[nH]c2c1C (centres unmarked),0.251%
6,Fc1ccc2nc(C3CCCCN3Cc3nc(CC4CC4)no3)[nH]c2c1 (centres unmarked),14.7%
7,CCc1ccc(OCCCC(=O)Nc2ccc(S(=O)(=O)Nc3cc(C)nc(C)n3)cc2)cc1,14.5%
8,CCCCN(C(=O)Cn1nnc2ccccc21)C(C(=O)NCCOC)c1cccs1 (centres unmarked),20.7%
9,Cc1nc2ccccc2n1C1CC(=O)N(Cc2ccccc2)C1=O (centres unmarked),15.9%
10,CCOC(=O)C1=C(C)NC(C)=C(C(=O)OCC)C1C(=O)O,-4.2%
11,CNC(=S)N1CCc2sccc2C1C (centres unmarked),6.76%
12,CCCCc1nc2cc(C(=O)NCCc3c(C)n[nH]c3C)ccc2o1,7.7%
13,Cc1ccc2c(c1)N(CC(=O)OC(CC(C)C)C(=O)NC1CCCC1)C(=O)CO2 (centres unmarked),-13.6%
14,Cc1ccc(C(=O)Cn2c(-c3ccccc3)noc2=O)cc1,-1.49%
15,Cc1cccc(-n2nnnc2SCC(=O)Nc2ccc(N3CCN(C)CC3)cc2)c1,2.19%
16,CCOC(=O)c1c(NC(=O)c2ccc(Cl)s2)sc(C)c1C,11.2%
17,COC(=O)c1ccc(C(=O)OC)c(NC(=O)C2CCCO2)c1 (centres unmarked),9.88%
18,O=C(CSc1nnc(C2CCCCC2)n1-c1ccccc1)NCc1ccco1,-4.92%
19,CCCn1nc(NC(=O)c2cccs2)c2cc3cccc(C)c3nc21,2.01%
